# About 4,200 (1.3%) of roughly 330,000 compounds were called active. Inconclusive means that the source gave no clear call. Such entries were picked first, then a sample of the others. Calls follow the shape of the dose curve; as a rule, active = well fitted activation curve with a large enough effect; inconclusive = small, poorly fitted or top-dose-only effect; inactive = no such curve, though single readings can be large or run the other way. Potencies of inconclusive entries are doubtful fits and often do not repeat.
# Assay: qHTS screen for small molecules that induce genotoxicity in human embryonic kidney (HEK293T) cells expressing luciferase-tagged ELG1; also: nearly all actives have a fitted effect of over 60% in size; as to activity change, positive = activation: % of control where 0% means no effect
# Conditions: HEK293T ELG1-luciferase reporter, luminescence, 16 h; series mostly up to 46 µM; activity change, positive = activation: at the top concentration
# Method in brief: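 Genotoxicity was scored as increased ELG1-luciferase reporter signal, measured by ONE-Glo luminescence (30 min, room temperature). Compound or vehicle exposure of the HEK293T reporter cells lasted 16 hr at 37°C.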
# Potency is read from the fitted curve at half-maximal effect; tags tell the direction and shape of the fitted curve.
SMILES,Potency,"activity change, positive = activation"
C/C(=N\Nc1nccnc1Cl)c1ccc(F)cc1,"inconclusive: 18.3 µM [activator, partial curve]",–
Cn1c(=NC(=O)c2cccc([N+](=O)[O-])c2)sc2ccccc21,active: 0.82 µM,–
O=S(=O)(NCc1ccncc1)c1ccc(Br)s1,"inconclusive: 4.61 µM [activator, full curve, poor fit]",–
C(=N\NC1=Nc2cccc3cccc1c23)/c1ccccc1,"inconclusive: 6.51 µM [activator, partial curve]",–
O=C1NC(=Nc2ccccc2)S/C1=C\C=C\c1ccco1,"inconclusive: 23.1 µM [activator, partial curve, poor fit]",–
COc1cc2c(cc1OC)C1(Nc3c-2c(C)nn3-c2ccccc2)C(=O)Nc2ccccc21 (configuration not stated),–,inactive: -2.57%
Cc1cc(O)ccc1N/C=C/c1onc(C)c1[N+](=O)[O-],"inconclusive: 29.1 µM [activator, single point]",–
COc1ccc(CCNC(=O)CCS(=O)(=O)Cc2ccccc2C)cc1OC,–,inactive: -1.79%
COc1ccc(Nc2nc(Cl)nc(Nc3ccc(OC)cc3)n2)cc1,–,inactive: -13.9%
Cc1ccc(-c2nnn(Cc3nc4ccccc4s3)n2)cc1,"inconclusive: 31.6 µM [activator, single point]",–
O=C(CSc1nc2ccc(NC(=O)CSc3nnnn3-c3ccccc3)cc2s1)Nc1ccccc1,–,inactive: 12.7%
O=C(Nc1ccc2ccccc2n1)c1ccc(Cl)cc1,"inconclusive: 1.16 µM [activator, full curve]",–
O=C(NCc1ccc(Cl)cc1)c1noc2c1CCCC2,"inconclusive: 20.6 µM [activator, partial curve, poor fit]",–
Cc1ccc(NC(=O)Nc2ccccc2C(N)=O)cc1,–,inactive: 12%
CCn1c(C(=O)N2CCCC(C(=O)NCCc3ccc(C)cc3)C2)cc2sccc21 (configuration not stated),–,inactive: -11.8%
COc1ccc(NC(=O)CSc2nc3ccsc3c(=O)n2Cc2ccccn2)c(OC)c1,"inconclusive: 13 µM [activator, partial curve, poor fit]",–
COc1ccc(/C=C/C(=O)Oc2cccc(/C=N/NC(=O)COc3c(C)cccc3C)c2)cc1,"inconclusive: 20.6 µM [activator, single point]",–
Cn1c(COc2ccccc2)nnc1SCC(=O)Nc1ccc(N2CCOCC2)cc1,–,inactive: 13.1%
CC(C)Cc1nnc(NC(=O)Nc2ccccc2)s1,"inconclusive: 16.4 µM [activator, partial curve]",–
Cc1ccc(NC(=O)CN(C)S(=O)(=O)c2cccc3cccnc23)cc1C,–,inactive: -0.973%
Cc1cccc(-n2nc3c(c2NC(=O)C2CC2)CS(=O)(=O)C3)c1C,–,inactive: 2.18%
COc1ccccc1Nc1nc2ccccc2n1C,"inconclusive: 18.4 µM [activator, partial curve]",–
CCOc1ccc(C(=O)NC2=NCCS2)cc1,"inconclusive: 5.17 µM [activator, partial curve]",–
CC1CCCN(S(=O)(=O)c2cccc(C(=O)NCC3CCCO3)c2)C1 (configuration not stated),–,inactive: 3.47%

SMILES,Potency,"activity change, positive = activation"
CNc1ccc(/C=C2\CSc3ccccc3C2=O)cc1[N+](=O)[O-],"inconclusive: 5.8 µM [activator, single point]",–
CCC1(c2ccc(Cl)cc2)NC(=S)N(c2ccc(C)cc2)N1 (configuration not stated),"inconclusive: 32.6 µM [activator, partial curve, poor fit]",–
COc1ccc(-n2nc(C(=O)NCc3ccco3)c3ccccc3c2=O)cc1,"inconclusive: 25.9 µM [activator, single point]",–
COc1ccc(C(c2c(C)n(C)n(-c3ccccc3)c2=O)c2c(C)n(C)n(-c3ccccc3)c2=O)c(OC)c1OC,–,inactive: -2.56%
O=C(Nc1ccc2c(c1)OCO2)Nc1ccccc1F,active: 0.92 µM,–
Cc1ccc(NC(=O)c2cccc(S(C)(=O)=O)c2)cc1,"inconclusive: 13 µM [activator, partial curve, poor fit]",–
Cc1cccc(C)c1OCc1nc2ccccc2c(=O)n1/N=C/c1c[nH]c2ccccc12,–,inactive: -12.6%
Cc1cnc(NC(=O)CCCSc2nc3ccccc3s2)s1,"inconclusive: 32.6 µM [activator, partial curve, poor fit]",–
O=C(c1ccc2c3n(nc2c1)-c1ccccc1CO3)N1CCOCC1,"inconclusive: 9.2 µM [activator, partial curve]",–
Cc1ccc(NC(=O)c2noc3c2CCc2ccccc2-3)cc1,active: 20.6 µM,–
NNC(=O)c1sc2cc(C(F)(F)F)cnc2c1-c1ccccn1,–,inactive: 2.93%
O=C(O)c1cc(N/N=C/c2ccc(N3CCOCC3)s2)ccc1Cl,"inconclusive: 16.4 µM [activator, partial curve]",–
CCCCOc1ccc(-c2nc(-c3cccnc3)no2)cc1,active: 6.51 µM,–
O=C(O)c1cccc(-c2noc(-c3cccc(Cl)c3)n2)c1,"inconclusive: 0.058 µM [activator, full curve]",–
CCCn1cnc2cc(NCc3cccc(OC)c3O)ccc21,"inconclusive: 14.6 µM [activator, single point]",–
CC1(C)Cc2nc3sc4c(N(CCO)CCO)ncnc4c3cc2CO1,"inconclusive: 25.9 µM [activator, partial curve, poor fit]",–
CC1(C)Cc2c(c(N3CCOCC3)nc3sc4c(NN)ncnc4c23)CS1,–,inactive: -13.3%
CC(Oc1ccc(Cl)cc1Cl)C(=O)Nc1ccc(O)cc1 (configuration not stated),–,inactive: 2.79%
O=C(COC(=O)CCS(=O)(=O)c1ccccc1)NC(=O)c1ccc(OC(F)F)cc1,–,inactive: 0.205%
COc1ccc(S(=O)(=O)Nc2cccc3c2O[C@H](CN(C)C(=O)Nc2ccc(C(F)(F)F)cc2)[C@@H](C)CN([C@H](C)CO)C3=O)cc1,–,inactive: -5.3%
CCc1nnc(NC(=O)Cc2ccc(OC)c(OC)c2)s1,–,inactive: 0.772%
O=C(NCCN1C(=O)S/C(=C\c2cccc(Cl)c2Cl)C1=O)C1=COCCO1,"inconclusive: 25.9 µM [activator, partial curve, poor fit]",–
N#Cc1ncc(-c2ccc3c(c2)OCCOCCOCCOCCOCCO3)nc1C#N,"inconclusive: 25.9 µM [activator, partial curve, poor fit]",–
COc1ccccc1OCc1nc(-c2ccc([N+](=O)[O-])cc2)no1,"inconclusive: 29.1 µM [activator, partial curve, poor fit]",–

SMILES,Potency,"activity change, positive = activation"
O=C(N=C1N=C2C=CC=CN2Cc2ccccc21)c1ccc(S(=O)(=O)N2CCOCC2)cc1,"inconclusive: 10.3 µM [activator, partial curve]",–
Cn1c(=O)n(C)c2cc(C(=O)c3ccccc3)ccc21,"inconclusive: 20.6 µM [activator, single point]",–
O=C(CCSc1ccccc1)N1CCN(C(=O)c2ccco2)CC1,"inconclusive: 29.1 µM [activator, single point]",–
CSc1nnc(NC(=O)c2ccc(C)c(S(=O)(=O)N3CCOCC3)c2)s1,"inconclusive: 18.4 µM [activator, partial curve]",–
C/C(=N\NC(=O)c1ccc2c(c1)OCO2)c1ccc(O)cc1,"inconclusive: 16.4 µM [activator, single point]",–
Cc1ccc(C(=O)Nc2cccc(C(=O)N3CCOCC3)c2)cc1,"inconclusive: 16.4 µM [activator, partial curve]",–
O=C(NCc1cccnc1)Nc1ccc2c(c1)OCO2,"inconclusive: 23.1 µM [activator, partial curve, poor fit]",–
COC(=O)c1nc(N)sc1-c1ccc(Cl)cc1,"inconclusive: 29.1 µM [activator, single point]",–
O=C(N/N=C/c1sc2ccccc2c1O)c1ccccc1,"inconclusive: 23.1 µM [activator, single point]",–
CCOc1ccc2c(c1)nc(SCC(=O)c1ccc(Br)s1)n2C,–,inactive: -1.19%
NC(=O)Cc1ccc2sc(-c3ccccc3)nc2c1,"inconclusive: 5.8 µM [activator, partial curve]",–
CCc1ccc(C(=O)COC(=O)c2ccccc2OC)cc1,"inconclusive: 23.1 µM [activator, partial curve]",–
Cc1cc(OCC(=O)N2CCOCC2)ccc1NC(=O)c1ccccc1C,"inconclusive: 32.6 µM [activator, partial curve, poor fit]",–
O=C(Nc1cccc(O)c1)c1cnn2cccnc12,"inconclusive: 25.9 µM [activator, single point]",–
Cc1nc(C)c(-c2ccc(SCc3ccccc3F)nn2)s1,"inconclusive: 20.6 µM [activator, partial curve, poor fit]",–
O=C(NNC(=O)c1cccs1)c1ccc(Br)cc1,"inconclusive: 3.66 µM [activator, full curve, poor fit]",–
COc1ccc(NCc2nc3ccccc3n2CCOc2ccc(C)cc2)cc1,"inconclusive: 32.6 µM [activator, partial curve, poor fit]",–
O=C(Nc1ccccn1)c1ccc(Br)c(S(=O)(=O)N2CCCCC2)c1,–,inactive: -4.65%
Nc1ccc(SC(F)(F)F)cc1,"inconclusive: 8.2 µM [activator, partial curve]",–
O=C(CCc1ccccc1)Nc1ccc2c(c1)OCCO2,"inconclusive: 2.91 µM [activator, full curve]",–
Cc1ccc(OCC(=O)OC(C)CN2CCCCC2)cc1 (configuration not stated),–,inactive: -2.65%
CC(C)n1cc(NC(=O)c2cc(-c3ccccc3)on2)cn1,active: 18.4 µM,–
CCC(C)c1ccc(NC(=O)C2CC2)cc1 (configuration not stated),"inconclusive: 18.4 µM [activator, partial curve]",–
CN1CCN(c2ccc(NC(=O)c3ccc4c(c3)OCCO4)cc2Cl)CC1,"inconclusive: 3.26 µM [activator, partial curve]",–
